Test results taken from the supplement of paper PMC8728848.
Some of the results follow.

Tests used:
Assay in all cases: glycan array binding signal (z-score within array); higher = stronger binding
Settings in all cases: glycan notation: IUPAC condensed, linker removed
[1] = target: Fuc(a1-2)Gal(b1-4)[Fuc(a1-3)]GlcNAc(b1-2)Man(a1-3)[Fuc(a1-2)Gal(b1-4)[Fuc(a1-3)]GlcNAc(b1-2)Man(a1-6)]Man(b1-4)GlcNAc(b1-4)[Fuc(a1-6)]GlcNAc
Outline: (§1)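 The Consortium for Functional Glycomics database supplied 3228 glycan arrays, of which those lacking an available protein sequence were dropped. The binding signal, a within-array Z-score, was averaged across arrays of the same protein sequence and across linkers. Negative scores can be read as non-binding.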

[2] = target: Fuc(a1-2)Gal(b1-4)[Fuc(a1-3)]GlcNAc(b1-2)[Fuc(a1-2)Gal(b1-4)[Fuc(a1-3)]GlcNAc(b1-4)]Man(a1-3)[Fuc(a1-2)Gal(b1-4)[Fuc(a1-3)]GlcNAc(b1-2)Man(a1-6)]Man(b1-4)GlcNAc(b1-4)GlcNAc
Outline: as §1

[3] = target: Fuc(a1-2)Gal(b1-4)[Fuc(a1-3)]GlcNAc(b1-3)Gal(b1-4)[Fuc(a1-3)]GlcNAc
Outline: as §1

[4] = target: Fuc(a1-2)Gal(b1-4)[Fuc(a1-3)]GlcNAc(b1-3)Gal(b1-4)[Fuc(a1-3)]GlcNAc(b1-3)Gal(b1-4)[Fuc(a1-3)]GlcNAc
Outline: as §1

[5] = target: Fuc(a1-2)Gal(b1-4)[Fuc(a1-3)]GlcNAc(b1-3)GalNAc
Outline: as §1

[6] = target: Fuc(a1-2)Gal(b1-4)[Fuc(a1-3)]GlcNAc(b1-3)[Neu5Ac(a2-6)Gal(b1-4)GlcNAc(b1-6)]Gal(b1-4)Glc
Outline: as §1

[7] = target: Fuc(a1-2)Gal3S(b1-4)GlcNAc
Outline: as §1

[8] = target: Fuc(a1-2)Gal6S(b1-3)GlcNAc
Outline: as §1

[9] = target: Fuc(a1-2)Gal6S(b1-3)GlcNAc6S
Outline: as §1

[10] = target: Fuc(a1-2)Gal6S(b1-4)Glc
Outline: as §1

[11] = target: Fuc(a1-2)Gal6S(b1-4)Glc6S
Outline: as §1

[12] = target: Fuc(a1-2)[Gal(a1-3)]Gal
Outline: as §1

[13] = target: Fuc(a1-2)[Gal(a1-3)]Gal(b1-3)GalNAc
Outline: as §1

[14] = target: Fuc(a1-2)[Gal(a1-3)]Gal(b1-3)GalNAc(b1-3)Gal(a1-4)Gal(b1-4)Glc
Outline: as §1

[15] = target: Fuc(a1-2)[Gal(a1-3)]Gal(b1-3)GlcNAc
Outline: as §1

[16] = target: Fuc(a1-2)[Gal(a1-3)]Gal(b1-3)GlcNAc(b1-2)Man(a1-3)[Fuc(a1-2)[Gal(a1-3)]Gal(b1-3)GlcNAc(b1-2)Man(a1-6)]Man(b1-4)GlcNAc(b1-4)GlcNAc
Outline: as §1

[17] = target: Fuc(a1-2)[Gal(a1-3)]Gal(b1-3)GlcNAc(b1-2)Man(a1-3)[Fuc(a1-2)[Gal(a1-3)]Gal(b1-3)GlcNAc(b1-2)Man(a1-6)]Man(b1-4)GlcNAc(b1-4)[Fuc(a1-6)]GlcNAc
Outline: as §1

[18] = target: Fuc(a1-2)[Gal(a1-3)]Gal(b1-3)GlcNAc(b1-3)GalNAc
Outline: as §1

[19] = target: Fuc(a1-2)[Gal(a1-3)]Gal(b1-3)GlcNAc(b1-6)GalNAc
Outline: as §1

[20] = target: Fuc(a1-2)[Gal(a1-3)]Gal(b1-4)Glc
Outline: as §1

[21] = target: Fuc(a1-2)[Gal(a1-3)]Gal(b1-4)GlcNAc
Outline: as §1

[22] = target: Fuc(a1-2)[Gal(a1-3)]Gal(b1-4)GlcNAc(b1-2)Man
Outline: as §1

[23] = target: Fuc(a1-2)[Gal(a1-3)]Gal(b1-4)GlcNAc(b1-2)Man(a1-3)[Fuc(a1-2)[Gal(a1-3)]Gal(b1-4)GlcNAc(b1-2)Man(a1-6)]Man(b1-4)GlcNAc(b1-4)GlcNAc
Outline: as §1

[24] = target: Fuc(a1-2)[Gal(a1-3)]Gal(b1-4)GlcNAc(b1-2)Man(a1-3)[Fuc(a1-2)[Gal(a1-3)]Gal(b1-4)GlcNAc(b1-2)Man(a1-6)]Man(b1-4)GlcNAc(b1-4)[Fuc(a1-6)]GlcNAc
Outline: as §1

[25] = target: Fuc(a1-2)[Gal(a1-3)]Gal(b1-4)GlcNAc(b1-3)GalNAc
Outline: as §1

[26] = target: Fuc(a1-2)[Gal(a1-3)]Gal(b1-4)GlcNAc(b1-3)[Fuc(a1-2)[Gal(a1-3)]Gal(b1-4)GlcNAc(b1-6)]GalNAc
Outline: as §1

[27] = target: Fuc(a1-2)[Gal(a1-3)]Gal(b1-4)GlcNAc(b1-6)GalNAc
Outline: as §1

[28] = target: Fuc(a1-2)[Gal(a1-3)]Gal(b1-4)[Fuc(a1-3)]Glc
Outline: as §1

[29] = target: Fuc(a1-2)[Gal(a1-3)]Gal(b1-4)[Fuc(a1-3)]GlcNAc
Outline: as §1

[30] = target: Fuc(a1-2)[Gal(a1-3)]Gal(b1-4)[Fuc(a1-3)]GlcNAc(b1-3)GalNAc
Outline: as §1

[31] = target: Fuc(a1-2)[Gal(a1-4)]Gal(b1-4)GlcNAc
Outline: as §1

[32] = target: Fuc(a1-2)[GalNAc(a1-3)]Gal
Outline: as §1

[33] = target: Fuc(a1-2)[GalNAc(a1-3)]Gal(b1-3)GalNAc(a1-3)[Fuc(a1-2)]Gal(b1-4)GlcNAc
Outline: as §1

[34] = target: Fuc(a1-2)[GalNAc(a1-3)]Gal(b1-3)GalNAc(b1-3)Gal(a1-4)Gal(b1-4)Glc
Outline: as §1

[35] = target: Fuc(a1-2)[GalNAc(a1-3)]Gal(b1-3)GlcNAc
Outline: as §1

[36] = target: Fuc(a1-2)[GalNAc(a1-3)]Gal(b1-3)GlcNAc(b1-2)Man(a1-3)[Fuc(a1-2)[GalNAc(a1-3)]Gal(b1-3)GlcNAc(b1-2)Man(a1-6)]Man(b1-4)GlcNAc(b1-4)GlcNAc
Outline: as §1

[37] = target: Fuc(a1-2)[GalNAc(a1-3)]Gal(b1-3)GlcNAc(b1-2)Man(a1-3)[Fuc(a1-2)[GalNAc(a1-3)]Gal(b1-3)GlcNAc(b1-2)Man(a1-6)]Man(b1-4)GlcNAc(b1-4)[Fuc(a1-6)]GlcNAc
Outline: as §1

[38] = target: Fuc(a1-2)[GalNAc(a1-3)]Gal(b1-3)GlcNAc(b1-3)GalNAc
Outline: as §1

B1: PX14343B-bfa-546-20-546 (Bacteroides fragilis) (protein)
chain: CDLERYPLTDLSEETFWNSESNAELALTSLYRGSLTDGVEYNPSDWWSYHGMIMMEHLSDNAFDRRGENNPFFKISSGNLTADNAFIKRYWETSYKRIGYCNRFLVGIQNSSESEKKTRMIAEARFLRATQYFYLASYFKNVPLVENVLTGEEANNVTKTSQADILKWCVTEFTAAAADLPRFSAIPAGEAGRACKQAALAFLGRTCMLQKDWKSGAKAFHDIMELGDNAINANYQELFYPSTGTSNKENIFYIQYLENYLGTGLPQHALSAKDGGWSLVNPAADLYESYEFKDGTPFSYDDPRYDPSNLGKDRDPRLDYTIYYNGAIFMGTEYKMSPDYSAAKKEKLDYTSEASRTGFMMRKYFEESTPINDVQSANGLTPVIRYAEVLLGYLECLVEDNQTITQGILDETINAVRGRASVNMPPVTEVTPAKLREIVRHERRIELAMEGIRYWDIMRWGIAHEVLSQKIWGAPYPGSTQYATTTKEVDPTGNYRWYVGKRAFRNPTDYTWPIPQSEQNINPNLRD
- glycan array binding signal (z-score) [1]: -0.104
- glycan array binding signal (z-score) [2]: -0.106
- glycan array binding signal (z-score) [3]: -0.128
- glycan array binding signal (z-score) [4]: -0.12
- glycan array binding signal (z-score) [5]: -0.088
- glycan array binding signal (z-score) [6]: -0.121
- glycan array binding signal (z-score) [7]: 4.47
- glycan array binding signal (z-score) [8]: 2.42
- glycan array binding signal (z-score) [9]: 6.35
- glycan array binding signal (z-score) [10]: 0.199
- glycan array binding signal (z-score) [11]: 0.709
- glycan array binding signal (z-score) [12]: -0.117
- glycan array binding signal (z-score) [13]: -0.12
- glycan array binding signal (z-score) [14]: -0.127
- glycan array binding signal (z-score) [15]: -0.119
- glycan array binding signal (z-score) [16]: -0.131
- glycan array binding signal (z-score) [17]: -0.102
- glycan array binding signal (z-score) [18]: -0.106
- glycan array binding signal (z-score) [19]: -0.123
- glycan array binding signal (z-score) [20]: -0.124
- glycan array binding signal (z-score) [21]: -0.126
- glycan array binding signal (z-score) [22]: -0.127
- glycan array binding signal (z-score) [23]: -0.111
- glycan array binding signal (z-score) [24]: -0.106
- glycan array binding signal (z-score) [25]: -0.12
- glycan array binding signal (z-score) [26]: -0.127
- glycan array binding signal (z-score) [27]: -0.122
- glycan array binding signal (z-score) [28]: -0.124
- glycan array binding signal (z-score) [29]: -0.129
- glycan array binding signal (z-score) [30]: -0.134
- glycan array binding signal (z-score) [31]: -0.126
- glycan array binding signal (z-score) [32]: -0.121
- glycan array binding signal (z-score) [33]: -0.113
- glycan array binding signal (z-score) [34]: -0.132
- glycan array binding signal (z-score) [35]: -0.123
- glycan array binding signal (z-score) [36]: -0.129
- glycan array binding signal (z-score) [37]: -0.118
- glycan array binding signal (z-score) [38]: -0.127
